{"source": "PubChem BioAssay AID1347165", "about": "(National Center for Advancing Translational Sciences (NCATS), 2019)", "note": "Screen size: about 220,000 compounds; about 5,700 (2.6%) were called active. Inconclusive means that the source gave no clear call. Such entries were picked first, then a sample of the others. The call rests on the fitted dose curve; in most records, active means well fitted inhibition curve with a large enough effect; inconclusive means small, poorly fitted or top-dose-only effect; inactive means no such curve, though single readings can be large or run the other way. Potencies of inconclusive entries are doubtful fits and often do not repeat. Potency means the concentration at half of the fitted maximal effect; tags describe the fitted curve by direction and shape.", "data": [{"biological_target": "Lysine-specific demethylase 5B (Homo sapiens) (UniProt Q9UGL1)", "sequence (Q9UGL1 whole entry, looked up)": "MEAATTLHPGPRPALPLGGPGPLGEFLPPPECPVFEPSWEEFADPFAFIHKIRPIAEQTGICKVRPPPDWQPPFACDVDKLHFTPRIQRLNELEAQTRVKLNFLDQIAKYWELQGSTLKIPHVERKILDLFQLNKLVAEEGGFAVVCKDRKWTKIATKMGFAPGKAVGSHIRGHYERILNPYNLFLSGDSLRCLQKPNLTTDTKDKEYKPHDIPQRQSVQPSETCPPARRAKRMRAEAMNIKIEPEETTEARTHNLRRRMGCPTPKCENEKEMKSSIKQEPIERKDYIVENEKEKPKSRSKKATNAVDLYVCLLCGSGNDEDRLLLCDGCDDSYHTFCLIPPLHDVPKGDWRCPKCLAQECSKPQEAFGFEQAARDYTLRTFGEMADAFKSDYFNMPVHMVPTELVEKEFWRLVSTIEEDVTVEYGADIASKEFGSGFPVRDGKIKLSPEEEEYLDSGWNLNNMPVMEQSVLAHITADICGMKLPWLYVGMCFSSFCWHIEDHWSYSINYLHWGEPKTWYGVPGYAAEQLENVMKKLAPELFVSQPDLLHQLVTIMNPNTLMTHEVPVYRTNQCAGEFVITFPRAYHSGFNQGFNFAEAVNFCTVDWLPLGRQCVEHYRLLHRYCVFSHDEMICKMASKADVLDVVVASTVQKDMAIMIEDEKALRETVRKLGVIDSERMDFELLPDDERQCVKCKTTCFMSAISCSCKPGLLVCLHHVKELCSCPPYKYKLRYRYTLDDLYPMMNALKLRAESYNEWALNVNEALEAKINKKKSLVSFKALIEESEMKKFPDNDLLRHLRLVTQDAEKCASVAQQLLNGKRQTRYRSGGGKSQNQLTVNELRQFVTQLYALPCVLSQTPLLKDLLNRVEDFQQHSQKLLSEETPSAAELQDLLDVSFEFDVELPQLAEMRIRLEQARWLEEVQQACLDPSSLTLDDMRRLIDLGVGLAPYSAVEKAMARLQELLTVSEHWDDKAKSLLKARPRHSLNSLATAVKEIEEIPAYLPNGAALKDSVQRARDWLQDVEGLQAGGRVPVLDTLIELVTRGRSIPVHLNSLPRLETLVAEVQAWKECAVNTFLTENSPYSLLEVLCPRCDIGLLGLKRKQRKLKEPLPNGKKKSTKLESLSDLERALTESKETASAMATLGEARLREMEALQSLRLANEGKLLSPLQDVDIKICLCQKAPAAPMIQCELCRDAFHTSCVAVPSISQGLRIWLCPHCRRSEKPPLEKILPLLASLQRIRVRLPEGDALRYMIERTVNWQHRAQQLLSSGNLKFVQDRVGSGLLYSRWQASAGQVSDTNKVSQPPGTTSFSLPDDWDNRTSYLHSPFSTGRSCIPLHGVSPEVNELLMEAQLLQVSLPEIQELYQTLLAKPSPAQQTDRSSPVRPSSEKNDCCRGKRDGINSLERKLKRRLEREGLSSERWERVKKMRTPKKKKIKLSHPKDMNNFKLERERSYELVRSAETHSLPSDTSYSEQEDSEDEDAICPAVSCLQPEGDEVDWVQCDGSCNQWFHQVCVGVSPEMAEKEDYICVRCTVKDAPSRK", "assay": "Primary screen for KDM5B Histone Demethylases FDH-coupled qHTS; further: nearly all actives have a fitted effect of over 70% in size; on activity change, negative = inhibition: 0% is about no effect", "settings": "FDH-coupled NADH fluorescence (FDH is formaldehyde dehydrogenase); activity change, negative = inhibition: at 57.7 µM (top of the series) unless noted", "outline": "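KDM5BΔAP (200 nM final) in 50 mM HEPES pH 7.5, 0.01% Tween-20 was preincubated 10 min at RT with compound over a concentration range. Substrate mix (H3K4me3 12.5 µM, α-KG 25 µM, Fe²⁺, ascorbate, NAD⁺, FDH) was added, and NADH fluorescence change over 30 min gave dose-response curves.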", "values": [{"smiles": "CNC(=O)C1CCCN(S(=O)(=O)c2c(C)nn(CC(=O)N3CCc4ccccc43)c2C)C1", "note": "(stereo unspecified)", "activity change, negative = inhibition": "inactive: 7.27%"}, {"smiles": "COc1ccc(Cl)cc1NC(=O)c1c(NCc2cccnc2)sc2c1CCCC2", "Potency": "inconclusive: 15.8 µM [inhibitor, partial curve, poor fit]"}, {"smiles": "CCSc1nnc(-c2nn(C)c3c2CN(S(=O)(=O)c2ccc(C(C)=O)cc2)CC3)n1CC", "activity change, negative = inhibition": "inactive: 14.8%"}, {"smiles": "O=C(c1cc(F)cc(Cl)c1)N1CCc2nc(-c3cccc(F)c3)[nH]c2C1", "activity change, negative = inhibition": "inactive: -15.8%"}, {"smiles": "Cc1ncc2c(c1CNC(=O)c1ccccc1OC(F)F)CCNC2", "Potency": "inconclusive: 7.94 µM [inhibitor, full curve, poor fit]"}, {"smiles": "Cn1c(C(=O)NCCc2ccccc2)cc2cc(S(=O)(=O)N3CCCCC3)ccc21", "Potency": "inconclusive: 25.1 µM [inhibitor, single point]"}, {"smiles": "O=C(Nc1ccc(Cl)cc1F)N1CCc2nc3cc[nH]n3c(=O)c2C1", "Potency": "active: 31.6 µM"}, {"smiles": "O=C(OCc1ccccc1Cl)c1cccc(O)c1", "activity change, negative = inhibition": "inactive: -2.52%"}, {"smiles": "O=C(c1ccccc1)N1CCC2(C1)C(=NC1CCCCC1)NC(=O)N2c1cccnc1", "note": "(stereo unspecified)", "activity change, negative = inhibition": "inactive: 22.6% [at 115 µM]"}, {"smiles": "COCCn1c(C)cc(O)c(C(c2ccc(OC)cc2)N2CCCCC2)c1=O", "note": "(stereo unspecified)", "Potency": "inconclusive: 31.6 µM [inhibitor, single point]"}, {"smiles": "CCOCCn1cc(C2CCN(S(=O)(=O)c3cccc(Cl)c3C)CC2)c2ccccc21", "Potency": "active: 28.2 µM"}, {"smiles": "CC(C)OCCCNC(=O)Cn1ccc2ccc(Cl)cc21", "activity change, negative = inhibition": "inactive: -12.5%"}, {"smiles": "CCOc1ccc(NCc2cccn2-c2nnc(N3CCC(C(=O)NCCc4ccc(OCC)c(OCC)c4)CC3)s2)cc1", "Potency": "inconclusive: 25.1 µM [inhibitor, partial curve, poor fit]"}, {"smiles": "c1ccc(OCc2noc(-c3ccc(NCC4CCCCO4)nc3)n2)cc1", "note": "(stereo unspecified)", "Potency": "inconclusive: 22.4 µM [inhibitor, partial curve, poor fit]"}, {"smiles": "COc1ccc(-c2nc(Nc3ccc(C)cc3)c3ccccc3n2)cc1", "Potency": "inconclusive: 28.2 µM [inhibitor, partial curve, poor fit]"}, {"smiles": "Cc1ccccc1NC(=O)N(C)CC1CCOCC1", "activity change, negative = inhibition": "inactive: 20.6%"}, {"smiles": "COc1ccc(S(=O)(=O)N2CCN(C(=O)c3cc(-c4ccc(Br)cc4)n[nH]3)CC2)cc1OC", "Potency": "inconclusive: 3.55 µM [inhibitor, partial curve, poor fit]"}, {"smiles": "O=C(NC1CC1)c1ccc(Cn2ccn3nc4c(c3c2=O)CCCC4)cc1", "activity change, negative = inhibition": "inactive: -26.6%"}, {"smiles": "O=C1NC2(CCN(Cc3ccccc3C(F)(F)F)C2)COc2ccccc21", "note": "(stereo unspecified)", "Potency": "inconclusive: 25.1 µM [inhibitor, partial curve]"}, {"smiles": "CN(Cc1ccccc1)Cc1cc(C[C@H]2CNCC[C@H]2CC(=O)N2CCN(c3ccccn3)CC2)no1", "Potency": "active: 17.8 µM"}, {"smiles": "CCCCC(=O)Nc1ccc2oc(-c3ccncc3)nc2c1", "Potency": "inconclusive: 31.6 µM [inhibitor, single point]"}, {"smiles": "O=C(Nc1ccccc1C(F)(F)F)N1Cc2ccccc2Oc2ncccc21", "Potency": "inconclusive: 25.1 µM [inhibitor, partial curve, poor fit]"}, {"smiles": "CCOc1ccc(OCC)c(NS(=O)(=O)c2ccc(-c3cc(C(F)(F)F)on3)s2)c1", "activity change, negative = inhibition": "inactive: -21.2%"}, {"smiles": "COc1ccc(-c2cc(N3CCC(NC(=O)c4ccc(C)c(C)c4)C3)n[nH]2)cc1", "note": "(stereo unspecified)", "Potency": "inconclusive: 3.16 µM [inhibitor, full curve]"}, {"smiles": "CC(NC(=O)c1ccc(Cn2c(SCc3ccccc3)nc3cccnc32)cc1)c1ccccc1", "note": "(stereo unspecified)", "Potency": "inconclusive: 14.1 µM [inhibitor, partial curve, poor fit]"}, {"smiles": "CCN1CCN(C(c2cccc(OC)c2)c2c(O)cc(C)n(Cc3ccco3)c2=O)CC1", "note": "(stereo unspecified)", "Potency": "inconclusive: 39.8 µM [inhibitor, single point]"}, {"smiles": "CCCCN(CCCC)S(=O)(=O)c1nc(C)c(Cl)c(C)c1C#N", "activity change, negative = inhibition": "inactive: 14.4%"}, {"smiles": "O=C(c1cc2cc(Cl)ccc2[nH]1)N1C[C@@H](CO)[C@H](c2ccccn2)C1", "Potency": "inconclusive: 15.8 µM [inhibitor, partial curve]"}, {"smiles": "CCc1ccc(NC(=O)c2sc3nc(-c4ccccc4)cn3c2C)cc1", "activity change, negative = inhibition": "inconclusive: -31.8% [inhibitor]"}, {"smiles": "Cc1ccc(N(CC(=O)N2CCC(C(N)=O)CC2)S(=O)(=O)c2ccc(Cl)cc2)cc1C", "Potency": "inconclusive: 39.8 µM [inhibitor, single point]"}, {"smiles": "c1ccc(COc2ccccc2CN2CCC3(CCNCC3)C2)cc1", "Potency": "inconclusive: 0.891 µM [inhibitor, full curve, poor fit]"}, {"smiles": "CN1CCN(C)c2cnc(-c3ccc(C(=O)N(C)C)cc3)cc2C1", "Potency": "active: 35.5 µM"}, {"smiles": "Cc1ccc(SCC(=O)NC(C)(C#N)C2CC2)c(C)c1", "note": "(stereo unspecified)", "activity change, negative = inhibition": "inactive: -8.3%"}, {"smiles": "CN(C)C[C@@H]1CN(C)C[C@H]1NC(=O)Cc1cccc(Cl)c1", "activity change, negative = inhibition": "inactive: 16.7%"}, {"smiles": "Cc1nc(-c2nc3c([nH]2)CCCNC3=O)cc(=O)[nH]1", "Potency": "inconclusive: 28.2 µM [inhibitor, partial curve, poor fit]"}, {"smiles": "CCOC(=O)N1CCc2c(sc(NCc3ccc(N(C)C)cc3)c2C(=O)Nc2ccccc2OCC)C1", "Potency": "inconclusive: 6.31 µM [inhibitor, partial curve, poor fit]"}, {"smiles": "CN1CCC(C(=O)N2Cc3ccccc3CC3(CCN(Cc4ccccn4)C3)C2)CC1", "note": "(stereo unspecified)", "Potency": "inconclusive: 56.2 µM [inhibitor, partial curve, poor fit]"}, {"smiles": "COc1ccc(C(=O)NNC2=NS(=O)(=O)c3ccccc32)cc1OC", "Potency": "inconclusive: 11.2 µM [inhibitor, partial curve, poor fit]"}, {"smiles": "Cc1cccc(CC(=O)N2CCCC(c3nnnn3C)C2)c1", "note": "(stereo unspecified)", "Potency": "inconclusive: 8.91 µM [inhibitor, partial curve]"}, {"smiles": "CCCNC(=O)N(C1CCOCC1)C1CCN(S(=O)(=O)c2cc(F)ccc2C)CC1", "activity change, negative = inhibition": "inactive: 12.6%"}, {"smiles": "CCOC(=O)COc1cc(O)cc2oc(-c3ccccc3)cc(=O)c12", "activity change, negative = inhibition": "inactive: -6.01%"}, {"smiles": "CCc1noc(-c2ccn3c(CNC(=O)c4ccc(C(C)(C)C)cc4)nnc3c2)n1", "Potency": "inconclusive: 25.1 µM [inhibitor, partial curve, poor fit]"}, {"smiles": "Cc1ccc(CN2CC[C@H]3C(=O)NCCCCCCN(Cc4ccncc4)[C@@H]3C2)o1", "Potency": "inconclusive: 25.1 µM [inhibitor, single point]"}, {"smiles": "O=C(COc1ccccc1)NCCn1cccc1-c1nc(-c2ccc3c(c2)OCO3)no1", "Potency": "inconclusive: 35.5 µM [inhibitor, partial curve, poor fit]"}, {"smiles": "O=C(NC1CCN(c2cc(-c3ccc(Cl)cc3)[nH]n2)C1)c1c[nH]c2ccccc12", "note": "(stereo unspecified)", "Potency": "active: 11.2 µM"}, {"smiles": "Cc1sc(NC(=O)c2cccc(C#N)c2)c(C#N)c1C", "activity change, negative = inhibition": "inactive: -28.6%"}, {"smiles": "COc1cc(CN2Cc3ccccc3C2)ccc1OCC(O)CN1CCOCC1", "note": "(stereo unspecified)", "Potency": "inconclusive: 14.1 µM [inhibitor, partial curve]"}, {"smiles": "COc1ccc(Nc2ccc3c(n2)CN(Cc2ccccc2F)C(=O)CO3)cc1", "Potency": "active: 35.5 µM"}, {"smiles": "CC(C)(CC(=O)O)CC(=O)N1Cc2[nH]cnc2C[C@H]1C(=O)NC1CCCCC1", "Potency": "inconclusive: 25.1 µM [inhibitor, single point]"}, {"smiles": "CCOc1ccc(C2NC(=O)NC(CN3CCN(C(=O)OC(C)(C)C)CC3)=C2C(=O)OC)cc1", "note": "(stereo unspecified)", "Potency": "inconclusive: 39.8 µM [inhibitor, single point]"}, {"smiles": "O=C(NC1CCCCC1)C1CC=CCC1c1nc2ccccc2s1", "note": "(stereo unspecified)", "Potency": "inconclusive: 39.8 µM [inhibitor, single point]"}, {"smiles": "CCC(C(=O)Nc1cc(F)ccc1F)n1nc(-c2ccccc2)ccc1=O", "note": "(stereo unspecified)", "activity change, negative = inhibition": "inactive: 12.4%"}, {"smiles": "COc1cc(/C=C2\\COC/C(=C\\c3cc(OC)c(OC)c(OC)c3)C2=O)cc(OC)c1OC", "Potency": "inconclusive: 20 µM [inhibitor, partial curve, poor fit]"}, {"smiles": "CCC(=O)Oc1ccc2cc(-c3ccccc3)c(=O)oc2c1", "Potency": "inconclusive: 20 µM [inhibitor, partial curve, poor fit]"}, {"smiles": "O=C(c1ccc(Cl)nc1)N1CCC2(CC1)CCN(Cc1cccs1)c1ccccc1O2", "Potency": "inconclusive: 12.6 µM [inhibitor, partial curve]"}, {"smiles": "N#C/C(=C\\c1ccccc1)C(=O)Nc1ccccn1", "Potency": "inconclusive: 28.2 µM [inhibitor, partial curve, poor fit]"}, {"smiles": "Cc1ccc2nc(-c3ccc(N4CCOCC4)cc3)c(Nc3ccccc3C)n2c1", "Potency": "inconclusive: 25.1 µM [inhibitor, partial curve, poor fit]"}, {"smiles": "COc1ccc(C(=O)C2CCCN(C(=O)c3ccc(CSC)o3)C2)cc1F", "note": "(stereo unspecified)", "Potency": "inconclusive: 31.6 µM [inhibitor, partial curve, poor fit]"}, {"smiles": "O=C(O)c1cc(-c2c[nH]c3ccccc23)nc2cc3ccccc3cc12", "Potency": "inconclusive: 39.8 µM [inhibitor, single point]"}, {"smiles": "Cn1c(CC2CCS(=O)(=O)C2)nnc1SCC(=O)Nc1ccc(-c2ccccc2)cc1", "note": "(stereo unspecified)", "activity change, negative = inhibition": "inactive: 7.86%"}, {"smiles": "O=C(CN1C(=O)COc2ccc(S(=O)(=O)NC3CCCC3)cc21)Nc1ccc(F)c(Cl)c1", "Potency": "inconclusive: 25.1 µM [inhibitor, partial curve, poor fit]"}, {"smiles": "C=CCN(CC=C)Cc1c(C)[nH]c2c(C)cc(C)cc2c1=O", "activity change, negative = inhibition": "inactive: -12.8%"}, {"smiles": "COc1ccc(-c2cc3c(=O)n(CCNC(=O)Cc4ccc(C)cc4)ccn3n2)cc1", "Potency": "active: 20 µM"}, {"smiles": "c1ccc(N2CCC(Cn3ccnc3-c3cc4n(n3)CCCNC4)C2)cc1", "note": "(stereo unspecified)", "Potency": "inconclusive: 12.6 µM [inhibitor, single point]"}, {"smiles": "O=C(NCCn1cccc1-c1nc(-c2ccc3c(c2)OCO3)no1)C1(c2ccccc2)CC1", "Potency": "inconclusive: 39.8 µM [inhibitor, single point]"}, {"smiles": "Cc1ccc(C(=O)Nc2ccc3c(N4CCOCC4)ncnc3c2)cc1F", "Potency": "inconclusive: 14.1 µM [inhibitor, partial curve]"}]}]}
